# Assay results taken from PubChem BioAssay AID588342 (National Center for Advancing Translational Sciences (NCATS), 2011).
# Hit rate of the full screen: of about 360,000 compounds, about 25,000 (6.9%) were called active. The shares of active, inactive and inconclusive entries below differ from those in the screen. The call rests on the fitted dose curve; in most records, active means well fitted inhibition curve with a large enough effect; inconclusive means small, poorly fitted or top-dose-only effect; inactive means flat fitted curve, though single readings scatter. Potencies of inconclusive entries are doubtful fits and often do not repeat.
# Molecular target: Luciferin 4-monooxygenase (Photinus pyralis) (UniProt P08659)
# Chain of UniProt P08659 (P08659 whole entry, looked up): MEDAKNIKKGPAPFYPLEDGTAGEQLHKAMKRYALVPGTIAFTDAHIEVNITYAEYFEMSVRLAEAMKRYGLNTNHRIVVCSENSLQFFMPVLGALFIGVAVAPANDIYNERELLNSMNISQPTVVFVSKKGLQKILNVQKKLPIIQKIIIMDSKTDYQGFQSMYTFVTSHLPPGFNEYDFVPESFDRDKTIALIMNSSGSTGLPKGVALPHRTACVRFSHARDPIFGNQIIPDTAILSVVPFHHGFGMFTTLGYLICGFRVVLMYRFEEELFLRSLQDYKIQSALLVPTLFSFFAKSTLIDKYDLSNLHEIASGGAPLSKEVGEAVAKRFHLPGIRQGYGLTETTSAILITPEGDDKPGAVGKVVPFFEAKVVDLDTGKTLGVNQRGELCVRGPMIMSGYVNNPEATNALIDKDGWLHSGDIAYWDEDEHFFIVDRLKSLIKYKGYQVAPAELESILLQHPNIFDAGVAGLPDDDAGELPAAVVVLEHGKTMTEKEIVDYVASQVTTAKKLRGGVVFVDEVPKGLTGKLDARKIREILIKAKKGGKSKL
# Test: qHTS profiling assay for firefly luciferase inhibitor/activator using purifed enzyme and Km concentrations of substrates (counterscreen for miR-21 project); further: nearly all actives have a fitted effect of over 55% in size;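 on activity change, negative = inhibition: plate controls were vehicle for no effect and reference inhibitor for full effect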
# Settings: purified FLuc, luminescence inhibition; activity change, negative = inhibition: at 57.5 µM (top of the series)
# Outline: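 Purified P. pyralis luciferase, 10 nM final, with Km-level 10 uM D-luciferin and 10 uM ATP in 50 mM Tris acetate pH 7.5, 10 mM Mg acetate, 0.01% Tween-20, 0.05% BSA; 6-point qHTS titration about 60 µM downward; luminescence read.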
# Potency means the concentration at half of the fitted maximal effect; tags describe the fitted curve by direction and shape.
Structure (SMILES),Potency,"activity change, negative = inhibition"
CCN(CC(=O)Nc1ccc(N2CCOCC2)cc1)C(=O)COc1ccccc1OC,"inconclusive: 37.9 µM [inhibitor, partial curve, poor fit]",–
O=C(Cc1ccc(Cl)cc1)N/N=C1\CCCc2ccccc21,–,inactive: -3.13%
FC(F)(F)C1=Nc2cccc3cccc(c23)N1,"inconclusive: 30.1 µM [inhibitor, partial curve, poor fit]",–
O=c1c2c3c(sc2ncn1-n1cccc1)CCCCC3,"inconclusive: 26.9 µM [inhibitor, single point]",–
O=C(NC1CC1)c1ccc(Cn2c(SCc3ccc(F)cc3)nc3cccnc32)cc1,active: 1.69 µM,–
Cc1cccc(C)c1NC(=O)CN(C1CCCCC1)S(C)(=O)=O,–,inactive: -3.19%
Cc1ccc(Cl)cc1N1CCN(C(=O)c2nn(C)c3c2CS(=O)(=O)c2ccccc2-3)CC1,"inconclusive: 8.49 µM [inhibitor, partial curve, poor fit]",–
CCOC(=O)c1csc(NC(=O)c2ccc(S(=O)(=O)N(C)C)cc2)n1,–,inactive: -4.4%
COc1ccc(Oc2nnnn2-c2ccccc2)cc1,"inconclusive: 23.9 µM [inhibitor, partial curve, poor fit]",–
Fc1ccccc1/C=N/n1cc(-c2ccccc2)[nH]c1=S,"inconclusive: 10.7 µM [inhibitor, partial curve]",–
O=C(NC(=S)NC(=O)c1ccccc1F)c1ccccc1F,"inconclusive: 37.9 µM [inhibitor, partial curve, poor fit]",–
C/C(CCC1CC(C)OC1=O)=N/Nc1nc(-c2ccccc2)cs1 (stereo not drawn),"inconclusive: 26.9 µM [inhibitor, partial curve]",–
CC(=O)Nc1cccc(C(=O)OCC(=O)Nc2ccc(Cl)cn2)c1,"inconclusive: 37.9 µM [inhibitor, single point]",–
O=C(NC(=S)NC1C2CC3CC(C2)CC1C3)c1ccccc1 (stereo not drawn),"inconclusive: 16.9 µM [inhibitor, partial curve]",–
C=CCOC(=O)C1=C(C)N=c2s/c(=C3\C(=O)N(CC(=O)O)c4ccccc43)c(=O)n2C1c1ccc(OC)cc1 (stereo not drawn),"inconclusive: 37.9 µM [inhibitor, single point]",–
CSc1nsc(SCC(=O)Nc2cccc(C(=O)O)c2)n1,"inconclusive: 19 µM [inhibitor, partial curve, poor fit]",–
NC(=O)N/N=C/c1ccc(N2CCOCC2)s1,"inconclusive: 16.9 µM [inhibitor, partial curve]",–
Cc1csc(N/N=C\c2cccnc2)n1,"inconclusive: 26.9 µM [inhibitor, partial curve]",–
O=C(Cn1c(COc2ccc(Cl)cc2)nc2ccccc21)NCC(F)(F)F,"inconclusive: 13.5 µM [inhibitor, partial curve]",–
Cc1nc(SCc2nc3ccccc3[nH]2)c2oc3ccccc3c2n1,"inconclusive: 21.3 µM [inhibitor, partial curve]",–
CC(C)c1ccc(NC(=O)CN2C(=O)CSc3ccc(S(=O)(=O)N4CCCC4)cc32)cc1,"inconclusive: 37.9 µM [inhibitor, partial curve, poor fit]",–
CCn1c(=S)[nH]c2sc3c(c2c1=O)CCCCC3,"inconclusive: 30.1 µM [inhibitor, single point]",–

Structure (SMILES),Potency,"activity change, negative = inhibition"
COc1ccccc1OCCSc1nc2ccccc2n1CCC(=O)O,active: 26.9 µM,–
N#Cc1ccc(NC(=O)Nc2ccc(Cl)cc2)cc1,"inconclusive: 10.7 µM [inhibitor, partial curve]",–
COc1ccc(-c2csc(NC(=O)c3ccoc3C)n2)cc1,active: 12 µM,–
CCOC(=O)c1ccc(NC(=O)C23CCC(C)(C(=O)O2)C3(C)C)cc1 (stereo not drawn),"inconclusive: 12 µM [inhibitor, partial curve]",–
Cc1cc(C)n2cc(CSc3ccc(Cl)cc3)nc2n1,"inconclusive: 16.9 µM [inhibitor, single point]",–
NNc1nc2c(F)cccc2s1,"inconclusive: 37.9 µM [inhibitor, single point]",–
O=C(CCCn1c(=O)c2sccc2n(Cc2ccc(Cl)cc2)c1=O)NCc1ccc2c(c1)OCO2,–,inactive: 6.26%
Cc1nc2ccc(NC(=O)CS(=O)(=O)c3ccc(F)cc3)cc2s1,"inconclusive: 16.9 µM [inhibitor, partial curve]",–
COc1cc2c(C#N)c(N3CCN(C)CC3)nc(N)c2c(N)n1,"inconclusive: 37.9 µM [inhibitor, partial curve, poor fit]",–
COc1cccc(OCC(=O)NNC(=O)C(=O)Nc2ccc(OC)cc2OC)c1,"inconclusive: 30.1 µM [inhibitor, partial curve, poor fit]",–
O=C(N/N=C/c1cn(-c2ccccc2)nc1-c1cccs1)c1ccncc1,active: 10.7 µM,–
Cc1cc(C(=O)OCC(=O)NC2CCS(=O)(=O)C2)c(C)n1-c1ccccc1 (stereo not drawn),"inconclusive: 23.9 µM [inhibitor, partial curve, poor fit]",–
CN(C)S(=O)(=O)N1CCN(CC(O)COc2ccc3cc(Br)ccc3c2)CC1 (stereo not drawn),–,inactive: -3.76%
Cc1ccc(-c2nc3ccccn3c2Nc2ccc3c(c2)OCCO3)o1,"inconclusive: 16.9 µM [inhibitor, partial curve]",–
CCOC(=O)CSc1nc(-c2ccc3c(c2)OCO3)ccc1C#N,active: 5.36 µM,–
CSc1nc(=S)cc(C)[nH]1,"inconclusive: 33.8 µM [inhibitor, partial curve, poor fit]",–
CCN(c1ccc(OC)cc1)S(=O)(=O)c1nnc(NC(=O)c2ccco2)s1,–,inactive: 2.36%
Cc1c(CC(=O)O)c(=O)oc2cc3occ(-c4ccc(F)cc4)c3cc12,"inconclusive: 21.3 µM [inhibitor, single point]",–
N/C(=N\OC(=O)Nc1ccccc1)c1ccno1,"inconclusive: 23.9 µM [inhibitor, partial curve, poor fit]",–
CCOC(=O)/C(=C/C=C/c1ccccc1)NC(=O)c1ccccc1,"inconclusive: 15.1 µM [inhibitor, partial curve]",–
COCCc1nnc(NC(=O)C23CC4CC(CC(C4)C2)C3)s1,"inconclusive: 23.9 µM [inhibitor, partial curve, poor fit]",–
